{"source": "patent US9120851B2", "about": "“Human antibodies to human angiopoietin-like protein 4” (Regeneron Pharmaceuticals, Inc., priority 2009, dated 2015)", "key": {"[1]": {"assay": "Pharmacokinetic clearance in wild-type and hANGPTL4(+/+) mice, sandwich ELISA", "assay_type": "in vivo, mouse", "procedure": "Pharmacokinetic clearance rates of anti-hANGPTL4 antibodies H4H268P2 and H4H284P were determined in wild-type mice and in transgenic mice expressing human ANGPTL4 [hANGPTL4(+/+) mice]. The strain background for both wild-type and transgenic mice was C57BL6 (75%) and 129Sv (25%). Separate cohorts consisting of 5 mice each of either wild-type or hANGPTL4(+/+) mice received subcutaneously (s.c.) 1 mg/kg of H4H268P2, H4H284P, or an isotype-matched (hIgG4) control with irrelevant specificity. Blood samples were collected at 0 hour, 6 hours, 1 day, 2 days, 3 days, 4 days, 7 days, 10 days, and 15 days, 22 days, and 30 days after the injection. Serum levels of human antibodies were determined by a sandwich ELISA. Briefly, a goat polyclonal anti-human IgG (Fc-specific) capture antibody (Jackson ImmunoResearch, PA) was coated in 96-well plates at a concentration of 1 μg/mL and incubated overnight at 4° C. After the plates were blocked with BSA, serum samples in a six-point serial dilution and reference standards of the respective antibody in a twelve-point serial dilution were added to the plate and incubated for one hour at room temperature. After washing with a suitable washing buffer, captured human antibodies were detected using the same goat polyclonal anti-human IgG (Fc-specific) antibody conjugated with horse radish peroxidase (HRP) (Jackson ImmunoResearch, PA) and developed by standard colorimetric response using tetramethylbenzidine (TMB) substrate, measuring absorbance at 450 nm in a plate reader. Concentrations of human antibodies in serum were determined using the reference standard curve generated for the same sample plate."}, "humanized ANGPTL4 mice": {"tested_on": "humanized ANGPTL4 mice", "assay": "Serum TG levels in humanized ANGPTL4 mice", "assay_type": "in vivo, mouse", "settings": "for Serum TG: mean±SEM", "procedure": "The effect of anti-hANGPTL4 antibodies H1H268P and H1H284P on serum TG levels was determined in mice expressing the ANGPTL4 protein containing the human N-terminal coil-coil region (“humanized ANGPTL4 mice”). The humanized ANGPTL4 mouse was made by replacing first three exons of the mouse Angptl4 gene (the N terminal coil-coil region) with the corresponding human N-terminal coil-coil ANGPLT4 sequence in C57BL6/129 (F1H4) embryonic stem cells. After germ line transmission was established, heterozygous mice (ANGPTL4hum/+) were bred together to generate homozygous mice [ANGPTL4hum/hum or hANGPTL4(+/+)] on a C57BL6 background. Humanized ANGPTL4 mice were pre-bled 7 days before (day −7) the experiment and put into groups of six mice each for each antibody tested. Antibodies (H1H268P, H1H284P and isotype-matched (hIgG1) control with no known cross-reactivity to mouse antigens) were administered at 10 mg/kg dose by subcutaneous injection. Mice were bled after 4 hours of fasting at days 1, 4, 7 and 11 after antibody injection; and serum TG levels were determined by ADVIA® 1800 Chemistry System (Siemens). Average TG levels were calculated for each time point for each antibody.\nThe effect of anti-hANGPTL4 antibodies, H4H268P2 and H4H284P, on serum TG levels was determined in humanized ANGPTL4 mice. Humanized ANGPTL4 mice were pre-bled 7 days before the experiment and put into groups of six mice each for each antibody tested. Antibodies (H4H268P2, H4H284P and isotype-matched (hIgG4) control with no known cross-reactivity to mouse antigens) were administered at 10 mg/kg dose by subcutaneous injection. Mice were bled after 4 hours of fasting at days 1, 4, 7 and 11 after antibody injection; and TG levels were determined in the serum by ADVIA® 1800 Chemistry System (Siemens). Average TG levels were calculated for each time point for each antibody."}, "[2]": {"tested_on": "obese rhesus monkeys (Macaca mulatta)", "assay": "Phase I pilot PK/PD study in obese rhesus monkeys", "assay_type": "in vivo, rhesus monkey (Macaca mulatta)", "settings": "10 mg/kg IV, any time point after infusion", "procedure": "Phase I: In a pilot non-GLP pharmacokinetics/pharmacodynamic (PK/PD) study, H4H268P2 and H4H284P were administered as a single bolus intravenous (IV) injection, to obese rhesus monkeys (Macaca mulatta). Rhesus monkeys were selected because this species is closely related, both phylogenically and physiologically, to humans and is a species commonly used for nonclinical toxicity evaluations. Obese monkeys that had been on a high fat diet for greater than 6 months were selected because they typically display moderately elevated TG levels (i.e., mean >100 mg/dL; hyper-TG). Eight confirmed healthy, male monkeys were acclimated and assigned to the study for baseline assessment for 7 days prior to dosing. All animals received a vehicle (10 mM histidine, pH 6) IV infusion on Day −5, after which four of them received H4H268P2 and another four H4H284P at 10 mg/kg IV on day 0.\nSerum samples were collected from the baseline period through day 35 post-dosing and assessed for serum lipid levels by ADVIA® 1800 Chemistry System (Siemens). The average baseline for each animal was determined based on the samples taken on Days −7, −5 and 0. […] Thus the data analysis was done with 3 animals in each group. Percent (%) changes of serum TG levels from the baseline were determined for each animal and averaged for each Ab group."}}, "data": [{"molecule": "H4H284P: H1H284P converted to hIgG4 isotype (constant region SEQ ID NO:483, S108P hinge mutation) (antibody) heavy: QVQLVESGGGVVQPGRSLRLSCAASGFTFSSYGMHWVRQAPGKGLEWMAVISFDGGNKNNADSVKGRFTISRDNSKNTLYLQMNSLRAEDTAVYYCAKEGDRSGHPYFYYYGLDVWGQGTTVTVSASTKGPSVFPLAPCSRSTSESTAALGCLVKDYFPEPVTVSWNSGALTSGVHTFPAVLQSSGLYSLSSVVTVPSSSLGTKTYTCNVDHKPSNTKVDKRV[human IgG4 Fc with S228P (EU numbers) not printed] VL: DIQLTQSPSFLSASVGDRVTITCWASQGISSYLAWYQQKPGKAPKLLIYAASTLQSGVPSRFSGSGSETEFTLTISSLQPEDFATYYCQQLHSYPLTFGGGTKVEIK", "values": [{"measurement": "Cmax", "setting": "[1]; Wild-type mice, 1 mg/kg s.c.", "result": 15700, "unit": "ng/mL"}, {"measurement": "30-day AUC, fold less than that for H4H268P2", "setting": "[1]; hANGPTL4(+/+) mice", "result": "about 5 fold"}, {"measurement": "Cmax", "setting": "[1]; hANGPTL4(+/+) mice, 1 mg/kg s.c.", "result": 5860, "unit": "ng/mL"}, {"measurement": "AUC", "setting": "[1]; hANGPTL4(+/+) mice, 1 mg/kg s.c., over the 30-day period", "result": 7600, "unit": "ng·h/mL"}, {"measurement": "Serum TG", "setting": "humanized ANGPTL4 mice; day 1 after injection, 10 mg/kg s.c., 4 h fasting", "result": "86 ± 8.6", "unit": "mg/dL"}, {"measurement": "reduction in circulating TG compared to isotype-matched control antibody, in words", "setting": "humanized ANGPTL4 mice; day 4, 10 mg/kg s.c.", "result": "significant reduction"}, {"measurement": "Serum TG", "setting": "humanized ANGPTL4 mice; day 4 after injection, 10 mg/kg s.c., 4 h fasting", "result": "69 ± 6.4", "unit": "mg/dL"}, {"measurement": "Serum TG", "setting": "humanized ANGPTL4 mice; day 7 after injection, 10 mg/kg s.c., 4 h fasting", "result": "71 ± 11", "unit": "mg/dL"}, {"measurement": "Serum TG", "setting": "humanized ANGPTL4 mice; day 11 after injection, 10 mg/kg s.c., 4 h fasting", "result": "83 ± 7.3", "unit": "mg/dL"}, {"measurement": "Serum TG", "setting": "humanized ANGPTL4 mice; day −7 (pre-bleed)", "result": "103 ± 8.0", "unit": "mg/dL"}, {"measurement": "injection site reactions or other adverse effects", "setting": "[2]", "result": "No injection site reactions or other adverse effects were observed"}]}]}
